# The other results are listed elsewhere or left out.
# Columns and labels:
# Test in all cases: glycan array binding signal (z-score within array); higher = stronger binding
# Settings in all cases: glycan notation: IUPAC condensed, linker removed
# [1] = biological target: Gal(b1-4)GlcNAc(b1-3)Gal(b1-4)GlcNAc(b1-2)[Gal(b1-4)GlcNAc(b1-3)Gal(b1-4)GlcNAc(b1-6)]Man(a1-6)[Gal(b1-4)GlcNAc(b1-3)Gal(b1-4)GlcNAc(b1-2)Man(a1-3)]Man(b1-4)GlcNAc(b1-4)[Fuc(a1-6)]GlcNAc
# Outline: (§1)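 Glycan array binding is given as a within-array Z-score, which can be read as non-binding when negative. The arrays, 3228 of them, came from the Consortium for Functional Glycomics database and were retained only where the protein sequence was available. Z-scores were averaged across arrays of the same protein sequence at different concentrations or buffers and across linkers.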
# [2] = biological target: Gal(b1-4)GlcNAc(b1-3)Gal(b1-4)GlcNAc(b1-3)Gal(b1-4)GlcNAc
# Outline: as §1
# [3] = biological target: Gal(b1-4)GlcNAc(b1-3)Gal(b1-4)GlcNAc(b1-3)Gal(b1-4)GlcNAc(b1-2)Man(a1-3)[Gal(b1-4)GlcNAc(b1-3)Gal(b1-4)GlcNAc(b1-3)Gal(b1-4)GlcNAc(b1-2)Man(a1-6)]Man(b1-4)GlcNAc(b1-4)GlcNAc
# Outline: as §1
# [4] = biological target: Gal(b1-4)GlcNAc(b1-3)Gal(b1-4)GlcNAc(b1-3)Gal(b1-4)GlcNAc(b1-2)Man(a1-3)[Gal(b1-4)GlcNAc(b1-3)Gal(b1-4)GlcNAc(b1-3)Gal(b1-4)GlcNAc(b1-2)Man(a1-6)]Man(b1-4)GlcNAc(b1-4)[Fuc(a1-6)]GlcNAc
# Outline: as §1
# [5] = biological target: Gal(b1-4)GlcNAc(b1-3)Gal(b1-4)GlcNAc(b1-3)Gal(b1-4)GlcNAc(b1-2)[Gal(b1-4)GlcNAc(b1-3)Gal(b1-4)GlcNAc(b1-3)Gal(b1-4)GlcNAc(b1-6)]Man(a1-6)[Gal(b1-4)GlcNAc(b1-3)Gal(b1-4)GlcNAc(b1-3)Gal(b1-4)GlcNAc(b1-2)Man(a1-3)]Man(b1-4)GlcNAc(b1-4)[Fuc(a1-6)]GlcNAc
# Outline: as §1
# [6] = biological target: Gal(b1-4)GlcNAc(b1-3)Gal(b1-4)GlcNAc(b1-3)Gal(b1-4)GlcNAc(b1-3)Gal(b1-4)GlcNAc(b1-2)Man(a1-3)[Gal(b1-4)GlcNAc(b1-3)Gal(b1-4)GlcNAc(b1-3)Gal(b1-4)GlcNAc(b1-3)Gal(b1-4)GlcNAc(b1-2)Man(a1-6)]Man(b1-4)GlcNAc(b1-4)GlcNAc
# Outline: as §1
# [7] = biological target: Gal(b1-4)GlcNAc(b1-3)Gal(b1-4)GlcNAc(b1-3)Gal(b1-4)GlcNAc(b1-3)Gal(b1-4)GlcNAc(b1-2)Man(a1-3)[Gal(b1-4)GlcNAc(b1-3)Gal(b1-4)GlcNAc(b1-3)Gal(b1-4)GlcNAc(b1-3)Gal(b1-4)GlcNAc(b1-2)Man(a1-6)]Man(b1-4)GlcNAc(b1-4)[Fuc(a1-6)]GlcNAc
# Outline: as §1
# [8] = biological target: Gal(b1-4)GlcNAc(b1-3)Gal(b1-4)GlcNAc(b1-3)Gal(b1-4)GlcNAc(b1-3)Gal(b1-4)GlcNAc(b1-2)[Gal(b1-4)GlcNAc(b1-3)Gal(b1-4)GlcNAc(b1-3)Gal(b1-4)GlcNAc(b1-3)Gal(b1-4)GlcNAc(b1-6)]Man(a1-6)[Gal(b1-4)GlcNAc(b1-3)Gal(b1-4)GlcNAc(b1-3)Gal(b1-4)GlcNAc(b1-3)Gal(b1-4)GlcNAc(b1-2)Man(a1-3)]Man(b1-4)GlcNAc(b1-4)[Fuc(a1-6)]GlcNAc
# Outline: as §1
# [9] = biological target: Gal(b1-4)GlcNAc(b1-3)Gal(b1-4)GlcNAc(b1-3)Gal(b1-4)GlcNAc(b1-3)Gal(b1-4)GlcNAc(b1-3)Gal(b1-4)GlcNAc(b1-2)Man(a1-3)[Gal(b1-4)GlcNAc(b1-3)Gal(b1-4)GlcNAc(b1-3)Gal(b1-4)GlcNAc(b1-3)Gal(b1-4)GlcNAc(b1-3)Gal(b1-4)GlcNAc(b1-2)Man(a1-6)]Man(b1-4)GlcNAc(b1-4)GlcNAc
# Outline: as §1
# [10] = biological target: Gal(b1-4)GlcNAc(b1-3)Gal(b1-4)GlcNAc(b1-3)Gal(b1-4)GlcNAc(b1-3)Gal(b1-4)GlcNAc(b1-3)Gal(b1-4)GlcNAc(b1-2)Man(a1-3)[Gal(b1-4)GlcNAc(b1-3)Gal(b1-4)GlcNAc(b1-3)Gal(b1-4)GlcNAc(b1-3)Gal(b1-4)GlcNAc(b1-3)Gal(b1-4)GlcNAc(b1-2)Man(a1-6)]Man(b1-4)GlcNAc(b1-4)[Fuc(a1-6)]GlcNAc
# Outline: as §1
# [11] = biological target: Gal(b1-4)GlcNAc(b1-3)Gal(b1-4)GlcNAc(b1-3)Gal(b1-4)GlcNAc(b1-3)Gal(b1-4)GlcNAc(b1-3)Gal(b1-4)GlcNAc(b1-2)[Gal(b1-4)GlcNAc(b1-3)Gal(b1-4)GlcNAc(b1-3)Gal(b1-4)GlcNAc(b1-3)Gal(b1-4)GlcNAc(b1-3)Gal(b1-4)GlcNAc(b1-6)]Man(a1-6)[Gal(b1-4)GlcNAc(b1-3)Gal(b1-4)GlcNAc(b1-3)Gal(b1-4)GlcNAc(b1-3)Gal(b1-4)GlcNAc(b1-3)Gal(b1-4)GlcNAc(b1-2)Man(a1-3)]Man(b1-4)GlcNAc(b1-4)[Fuc(a1-6)]GlcNAc
# Outline: as §1
# [12] = biological target: Gal(b1-4)GlcNAc(b1-3)Gal(b1-4)GlcNAc(b1-3)Gal(b1-4)GlcNAc(b1-3)Gal(b1-4)GlcNAc(b1-3)Gal(b1-4)GlcNAc(b1-3)Gal(b1-4)GlcNAc(b1-2)Man(a1-3)[Gal(b1-4)GlcNAc(b1-3)Gal(b1-4)GlcNAc(b1-3)Gal(b1-4)GlcNAc(b1-3)Gal(b1-4)GlcNAc(b1-3)Gal(b1-4)GlcNAc(b1-3)Gal(b1-4)GlcNAc(b1-2)Man(a1-6)]Man(b1-4)GlcNAc(b1-4)GlcNAc
# Outline: as §1
# [13] = biological target: Gal(b1-4)GlcNAc(b1-3)Gal(b1-4)GlcNAc(b1-3)GalNAc
# Outline: as §1
# [14] = biological target: Gal(b1-4)GlcNAc(b1-3)Gal(b1-4)GlcNAc(b1-3)[Gal(b1-4)GlcNAc(b1-3)Gal(b1-4)GlcNAc(b1-6)]GalNAc
# Outline: as §1
# [15] = biological target: Gal(b1-4)GlcNAc(b1-3)Gal(b1-4)GlcNAc(b1-6)[Gal(b1-3)]GalNAc
# Outline: as §1
# [16] = biological target: Gal(b1-4)GlcNAc(b1-3)Gal(b1-4)[Fuc(a1-3)]GlcNAc(b1-3)Gal(b1-4)[Fuc(a1-3)]GlcNAc
# Outline: as §1
# [17] = biological target: Gal(b1-4)GlcNAc(b1-3)GalNAc
# Outline: as §1
# [18] = biological target: Gal(b1-4)GlcNAc(b1-3)[Fuc(a1-3)GlcNAc(b1-6)]Gal(b1-4)Glc
# Outline: as §1
# [19] = biological target: Gal(b1-4)GlcNAc(b1-3)[Gal(b1-4)GlcNAc(b1-6)]Gal(b1-4)GlcNAc
# Outline: as §1
# [20] = biological target: Gal(b1-4)GlcNAc(b1-3)[GlcNAc(b1-6)]Gal(b1-4)GlcNAc
# Outline: as §1
# [21] = biological target: Gal(b1-4)GlcNAc(b1-6)Gal(b1-4)GlcNAc
# Outline: as §1
# [22] = biological target: Gal(b1-4)GlcNAc(b1-6)GalNAc
# Outline: as §1
# [23] = biological target: Gal(b1-4)GlcNAc(b1-6)[Gal(b1-3)]GalNAc
# Outline: as §1
# [24] = biological target: Gal(b1-4)GlcNAc(b1-6)[Gal(b1-4)GlcNAc(b1-3)]GalNAc
# Outline: as §1
# Gal(b1-4)GlcNAc6P = biological target: Gal(b1-4)GlcNAc6P
# Outline: as §1
# Gal(b1-6)Gal = biological target: Gal(b1-6)Gal
# Outline: as §1
# Gal3S(b1-3)GalNAc = biological target: Gal3S(b1-3)GalNAc
# Outline: as §1
# Gal3S(b1-3)GlcNAc = biological target: Gal3S(b1-3)GlcNAc
# Outline: as §1
# [25] = biological target: Gal3S(b1-3)[Fuc(a1-4)]GlcNAc
# Outline: as §1
# Gal3S(b1-4)Glc = biological target: Gal3S(b1-4)Glc
# Outline: as §1
# Gal3S(b1-4)Glc6S = biological target: Gal3S(b1-4)Glc6S
# Outline: as §1
# Gal3S(b1-4)GlcNAc = biological target: Gal3S(b1-4)GlcNAc
# Outline: as §1
# [26] = biological target: Gal3S(b1-4)[Fuc(a1-3)]Glc6S
# Outline: as §1
# [27] = biological target: Gal3S(b1-4)[Fuc(a1-3)]GlcNAc
# Outline: as §1
# [28] = biological target: Gal3S(b1-4)[Fuc(a1-3)]GlcNAc6S
# Outline: as §1
# Gal3S4S(b1-4)GlcNAc = biological target: Gal3S4S(b1-4)GlcNAc
# Outline: as §1
# Gal3S6S(b1-4)GlcNAc = biological target: Gal3S6S(b1-4)GlcNAc
# Outline: as §1
# Gal3S6S(b1-4)GlcNAc6S = biological target: Gal3S6S(b1-4)GlcNAc6S
# Outline: as §1
# Gal4S(b1-4)GlcNAc = biological target: Gal4S(b1-4)GlcNAc
# Outline: as §1
# Gal4S6S(b1-4)GlcNAc = biological target: Gal4S6S(b1-4)GlcNAc
# Outline: as §1
# Gal6P(b1-4)GlcNAc = biological target: Gal6P(b1-4)GlcNAc
# Outline: as §1
# Gal6S(b1-3)GlcNAc = biological target: Gal6S(b1-3)GlcNAc
# Outline: as §1
# Gal6S(b1-3)GlcNAc6S = biological target: Gal6S(b1-3)GlcNAc6S
# Outline: as §1
# Gal6S(b1-4)Glc = biological target: Gal6S(b1-4)Glc
# Outline: as §1
# Gal6S(b1-4)Glc6S = biological target: Gal6S(b1-4)Glc6S
# Outline: as §1
binder,measurement,setting,value
CPA (Cicer arietinum) (protein) MAFSYLNLVLVTLTTLFFLQTTKVKSQKSVSFHITNFTISRPSITLQGTAEFLPNVLLLNDIEHPVFVVGRALYSKPITLWNNKTGKVASFVTSFTFDVQDLKKTVPGHGLVFFLAPSGSEIPFSSDGGNLGVVDGKNAFNRFVGVEFDNFVNSWDPKYSHVGINVNSLISTKTVKWNRVSGELVKVSIVYDSVSTTLTVIVTYKNGQISILSQLVDLKAVLPDTVNIGFSASTTLVSPRQLHNIHSWSFTSTFET,glycan array binding signal (z-score),[1],0.148
same,glycan array binding signal (z-score),[2],-0.617
same,glycan array binding signal (z-score),[3],4.32
same,glycan array binding signal (z-score),[4],2.13
same,glycan array binding signal (z-score),[5],0.908
same,glycan array binding signal (z-score),[6],0.022
same,glycan array binding signal (z-score),[7],0.005
same,glycan array binding signal (z-score),[8],-0.066
same,glycan array binding signal (z-score),[9],2.34
same,glycan array binding signal (z-score),[10],1.38
same,glycan array binding signal (z-score),[11],1.58
same,glycan array binding signal (z-score),[12],3.7
same,glycan array binding signal (z-score),[13],3.36
same,glycan array binding signal (z-score),[14],2.14
same,glycan array binding signal (z-score),[15],1.7
same,glycan array binding signal (z-score),[16],-0.289
same,glycan array binding signal (z-score),[17],-0.24
same,glycan array binding signal (z-score),[18],-0.234
same,glycan array binding signal (z-score),[19],-0.064
same,glycan array binding signal (z-score),[20],-0.304
same,glycan array binding signal (z-score),[21],-0.157
same,glycan array binding signal (z-score),[22],1.23
same,glycan array binding signal (z-score),[23],-0.371
same,glycan array binding signal (z-score),[24],3.6
same,glycan array binding signal (z-score),Gal(b1-4)GlcNAc6P,5.14
same,glycan array binding signal (z-score),Gal(b1-6)Gal,0.108
same,glycan array binding signal (z-score),Gal3S(b1-3)GalNAc,-0.183
same,glycan array binding signal (z-score),Gal3S(b1-3)GlcNAc,-0.472
same,glycan array binding signal (z-score),[25],-0.376
same,glycan array binding signal (z-score),Gal3S(b1-4)Glc,-0.53
same,glycan array binding signal (z-score),Gal3S(b1-4)Glc6S,-0.415
same,glycan array binding signal (z-score),Gal3S(b1-4)GlcNAc,-0.634
same,glycan array binding signal (z-score),[26],0.2
same,glycan array binding signal (z-score),[27],-0.769
same,glycan array binding signal (z-score),[28],-0.546
same,glycan array binding signal (z-score),Gal3S4S(b1-4)GlcNAc,-0.626
same,glycan array binding signal (z-score),Gal3S6S(b1-4)GlcNAc,-0.404
same,glycan array binding signal (z-score),Gal3S6S(b1-4)GlcNAc6S,-0.445
same,glycan array binding signal (z-score),Gal4S(b1-4)GlcNAc,-0.288
same,glycan array binding signal (z-score),Gal4S6S(b1-4)GlcNAc,-0.408
same,glycan array binding signal (z-score),Gal6P(b1-4)GlcNAc,-0.744
same,glycan array binding signal (z-score),Gal6S(b1-3)GlcNAc,-0.572
same,glycan array binding signal (z-score),Gal6S(b1-3)GlcNAc6S,-0.633
same,glycan array binding signal (z-score),Gal6S(b1-4)Glc,0.138
same,glycan array binding signal (z-score),Gal6S(b1-4)Glc6S,0.188
